Out of some 44,000 compounds screened, about 340 (0.77%) were called active. Not shown: some 5% with an inconclusive outcome. The call rests on the fitted dose curve; in most records, active means well fitted inhibition curve with a large enough effect; inconclusive means small, poorly fitted or top-dose-only effect; inactive means flat fitted curve, though single readings scatter. The list shows a part of the results.
assay: Acumen qHTS Assay for Inhibitors of the mTORC1 Signaling Pathway in MEF (Tsc2-/-, p53-/-) Cells: Sytravon; conditions: phospho-rpS6 immunofluorescence/PI, 24 h; series mostly up to 38.3 µM; activity change, negative = inhibition: at the top concentration;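 further: plate controls were DMSO for no effect and rapamycin for full effect; nearly all actives have a fitted effect of over 50% in size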
Summary of the method: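 Cell-based qHTS: Tsc2-/- p53-/- MEF, 24 h cpd, 37 °C; fix/perm, anti-phospho-S6 Alexa-488 + PI; Acumen 488 nm scan; pS6/PI ratio, % positive cells; rapamycin 7.5 nM = inhibition ref; PI count = viability.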

Activity change, negative = inhibition, inactive:
CCOc1ccccc1CNCc1c(C(=O)O)n(Cc2ccc(F)cc2)c2cc(C)ccc12 7.12%
CCn1cc(C(=O)NCCc2ccc(C)cc2)c(=O)c2cc(S(=O)(=O)N3CCc4ccccc4C3)ccc21 -12.8%
O=C(Nc1c(-c2ccccc2)nc2ccccn12)c1ccccc1F 4.94%
Cc1ccc(-c2noc(-c3cc(-c4ccc(F)cc4)n[nH]3)n2)cc1 6.83%
Cc1cc(C)cc(NC(=O)CNS(=O)(=O)c2ccc3nc(C)sc3c2)c1 -0.717%
CN1C(=O)Cc2cc(S(=O)(=O)CCC(=O)Nc3ccc(OC(F)(F)F)cc3)ccc21 5.79%
Cc1ccc(NC(=O)CN2C(=O)c3ccccc3Sc3ccc(C(=O)N4CCOCC4)cc32)c(Cl)c1 1.04%
CCN(C(=O)C1CCCN(c2ncnc3c2nc2n3CCCCC2)C1)c1cccc(C)c1 (centres undefined) 0.512%
CCOc1ccc(OC(=O)c2c(-c3ccccc3Cl)noc2C)cc1 2.34%
CCc1cc2c(cc3c(=O)n(CC(=O)NCc4cc(Br)ccc4OC)ncn32)s1 -8.51%
CCN(CC)S(=O)(=O)c1ccc2oc(C(=O)Nc3cc(C)ccc3OC)c(C)c2c1 7.98%
CCCCNC(=O)CN1C(=O)COc2ccc(S(=O)(=O)N3CCCCCC3)cc21 -12.1%
CCOc1ccc(NC(=O)C2CCN(S(=O)(=O)c3c(C)noc3/C=C/c3cccs3)CC2)cc1 3.94%
COC(=O)CNC(=O)N1CCN(S(=O)(=O)c2ccc3c(ccn3C)c2)CC1 -11.5%
CCOc1ccc(-c2nnc(SCC(=O)c3ccccc3)n2-c2ccccc2)cc1 1.7%
Cn1cccc1-c1cc2n(n1)CCC(=O)N2CCCC(=O)NCc1ccc(F)cc1 -0.858%
Cc1ccc(NC(=O)c2ncoc2-c2ccco2)cc1Cl 8.21%
Cc1cccc(C)c1NC(=O)Cn1c(SCC(=O)NCc2ccccc2)nc2ccccc21 1.41%
Cc1cc(=O)[nH]c2nnc(SCc3ccc(C(F)(F)F)cc3)n12 0.606%
CCOC(=O)c1[nH]c(C)c(CCC(=O)Nc2cccc(SC)c2)c1C -5.17%
COc1ccc2cc(CNc3ccc(OC)c(OC)c3)c(=O)n(CC(=O)Nc3ccccc3F)c2c1 1.28%
O=C(Nc1cc2ccc(O)cc2oc1=O)c1ccccc1 -18.7%
Fc1cccc(Cl)c1CNCCSc1nnnn1-c1ccccc1 2.95%
COc1cccc(C(=O)N(Cc2ccco2)c2ccccn2)c1 -0.16%
O=C(CNC(=O)c1ccccc1F)OCc1cc(=O)n2nc(C3CCCCC3)sc2n1 -3.5%
CCOc1ccc(CCNC(=O)CN2C(=O)COc3ccc(S(=O)(=O)N4CCCCCC4)cc32)cc1 5.24%
CCC(=O)C1=C(c2ccc(OC)c(OC)c2)N(C(=O)CC)n2c(CC)nnc2S1 -6.69%
Cc1ccc(NC(=O)c2c(NC(=O)Cc3ccccc3)sc3c2CCCC3)cc1 13.6%
CC(=O)Nc1ccc(NC(=O)CCSCCc2ccccn2)cc1 -5.14%
CN(C)c1ccc(CNC(=O)c2ccc(NC(=O)N3CCCCc4ccccc43)cc2)cc1 1.08%
N#Cc1c(-n2ncnc2-c2cccc(Br)c2)sc2c1CCCCC2 6.89%
COc1ccc(-n2c(SCC(=O)Nc3cccc(C)c3C)nc3c([nH]c4ccccc43)c2=O)cc1 -7.76%
Cc1ccc2oc(=O)c3cc(C(=O)N4CCN(c5ccccc5F)CC4)sc3c2c1 -7.12%
O=S(=O)(Nc1cc(F)ccc1F)c1ccc2[nH]c3c(c2c1)CCCCC3 -15.8%
CC(C)(C)c1ccc(Oc2ccc(NC(=O)CCC(=O)OCC(=O)c3ccccc3)cc2)cc1 3.37%
Cc1ccc(Cl)cc1N1CCN(C(=O)CCCn2c(=O)[nH]c3ccc(Br)cc3c2=O)CC1 -2.5%
CCc1ccccc1NC(=O)C1CCN(c2cnccn2)CC1 2.71%
CC(=O)c1ccc(Nc2ccc3cc(S(=O)(=O)N4CCCC4)ccc3n2)cc1 -0.0857%
O=C(CCn1cnnn1)Nc1cc(C(F)(F)F)cc(C(F)(F)F)c1 -4.99%
CC(=O)c1nnn(-c2ccc(C)cc2Cl)c1C -1.34%
COc1ccc2c(c1)c1c(c(=O)n(-c3ccc(OC)c(OC)c3)c(=O)n1Cc1ccccc1F)n2C -0.194%
COc1cc(NC(=O)CSc2nccn2C)cc(OC)c1OC 8.76%
CC(C)CCn1nnc2sc(-c3ccccc3)cc2c1=O -0.501%
O=C(NCCS(=O)(=O)N1CCN(c2ccc(F)cc2)CC1)c1cccc(C(F)(F)F)c1 10.1%
CCCCSCCCNC(=O)c1cn(C)c2ccc(S(=O)(=O)N3CCCCCC3)cc2c1=O 9.3%
COc1cc(OC)c(NC(=O)c2nn(-c3ccc(C)cc3)c(=O)c3c2c2ccccc2n3C)cc1Cl 8.53%
O=C(Nc1cccc(C(=O)N2CCN(c3cccc(Cl)c3)CC2)c1)c1nsc2ccccc12 7.34%
O=C(NCc1ccccc1Cl)c1ccc(Cn2c(SCc3ccccc3)nc3cccnc32)cc1 -1.8%
Cc1ccccc1Cn1c2ccccc2c2cnn(CC(=O)NCC(C)c3ccccc3)c(=O)c21 (centres undefined) -4.26%
CCc1ccccc1NC(=O)c1ccc2c(SCC(=O)O)c3c(nc2c1)CCC3 -15.9%
CCOc1ccc(C2c3c(oc4ccc(C)cc4c3=O)C(=O)N2CCCN(C)C)cc1 (centres undefined) -1.63%
CCOC(=O)C1CCN(C(=O)c2ccc(NC(=O)c3nsc4ccccc34)cc2)CC1 -6.65%
O=C(CCn1ccc2cc(S(=O)(=O)N3CCCC3)ccc21)NCc1cccc(Cl)c1 -3.38%
Cc1cc(C(=O)NCc2cccc(Br)c2)c2c(C)nn(-c3ccccc3)c2n1 1.88%
CC(=O)N1c2ccc(S(=O)(=O)NCC3CCC(C(=O)Nc4ccc(C)c(C)c4)CC3)cc2CC1C (centres undefined) -21%
Cc1ccc(NC(=O)c2ccc(CNS(=O)(=O)c3ccc4c(c3)C(C)(C)C(=O)N4C)cc2)cc1C -4.38%
COc1cc(CCNC(=O)c2ccc3c(c2)c(C)c(C)n3Cc2cccc(C)c2)cc(OC)c1OC -9.65%
COc1ccc(OC)c(Nc2ncnc3c2nc2n3CCCC2)c1 -11.8%
COCCCn1c(=N)c(C(=O)NCc2cccnc2)cc2c(=O)n3cc(C)ccc3nc21 1.23%
CCOc1ccc(NC(=O)c2nc3nc(C)cc(C(F)F)n3n2)cc1 -1.04%
Cc1cc(C)c2c(-n3cccc3)c(C(=O)NCc3cccc(F)c3)sc2n1 2.12%
CCc1nnc(SCc2ccc(OC)cc2)c2cc3sc(C)cc3n12 1.95%
Cc1cc(C)c(NC(=O)CCn2c(=O)c3cccn3c3ccccc32)c(C)c1 -4.68%
CCN1CCN(C(c2ccc(SC)cc2)c2c(O)cc(C)n(Cc3ccco3)c2=O)CC1 (centres undefined) -21%
COc1ccccc1NC(=O)C1CCN(S(=O)(=O)c2ccc3[nH]c4c(c3c2)CCCCC4)CC1 -13.4%
O=C(COC(=O)C(Cc1c[nH]c2ccccc12)NC(=O)c1ccc(Cl)cc1)c1ccc(Cl)cc1 (centres undefined) -1.28%
Cc1nn(-c2ccccc2)c2c1cc1c(=O)n(C)c(=O)nc-1n2-c1cccc(Cl)c1 4.47%
Oc1ccc(-c2nc(-c3ccccc3)c(-c3ccc(Br)cc3)[nH]2)cc1 2.85%
COc1ccc(-c2cc(=O)c3cc(OCC(=O)OC(C)C)ccc3o2)cc1 -8.43%
COc1ccc(CCNC(=O)c2oc(=O)c3ccccc3c2-c2ccccc2)cc1OC -2.02%
COc1ccc(CNC(=O)CN2C(=O)COc3ccc(S(=O)(=O)N4CCC(C)CC4)cc32)cc1 -2.09%
Cc1ccc(NC(=O)Cn2c(=O)n(CCCCC(=O)NCCc3ccc(Cl)cc3)c(=O)c3ccccc32)cc1 0.0826%
COC(=O)c1sc(N2C(=O)c3oc4ccccc4c(=O)c3C2c2ccc(O)cc2)nc1C (centres undefined) 3.06%
COc1cc(NC(=O)CCS(=O)(=O)c2nc(-c3ccc4c(c3)OCO4)cc(C(F)(F)F)n2)cc(OC)c1OC 12.5%
CCc1c(C)sc2c1CCN(C(=O)Nc1cc(C)cc(C)c1)C2c1ccccc1 (centres undefined) 3.04%
COCCCNC(=O)CSc1nc2cc3c(cc2c(=O)n1CCCCCC(=O)NCc1ccc2c(c1)OCO2)OCO3 -0.239%
CCCCNC(=O)C1CCC(CNS(=O)(=O)c2ccc(C)cc2)CC1 (centres undefined) -0.0302%
Cc1nc(NC(=O)c2c(-c3ccccc3)c(-c3ccccc3)nn(C)c2=O)sc1C 1.07%
Cc1cccc(NC(=O)c2sc3nc4c(cc3c2N)CN(C(C)C)CC4)c1 -0.49%
CCc1ccc(S(=O)(=O)Nc2ccc3[nH]c(=O)sc3c2)cc1 -0.452%
Cc1cccc(N2CCN(C(=O)CN3C(=O)COc4ccc(S(=O)(=O)N5CCOCC5)cc43)CC2)c1C 0.446%
CCC1CCCCN1C(=O)CSc1nc(-c2ccc(OC)c(OC)c2)cc(C(F)(F)F)n1 (centres undefined) -12.9%
CC1=C(C(=O)OC2CCCCCC2)C(c2cccc(F)c2F)CC(=O)N1 (centres undefined) -17.8%
COc1cc(NC(=O)CCCc2nnc3n(CC(C)C)c(=O)c4sccc4n23)cc(OC)c1 -6.77%
Cc1ccc(Cn2c(SCC(=O)NCc3ccccc3Cl)nc3ccsc3c2=O)cc1 -10.3%
Fc1ccc(Nc2nc(SCc3ccccc3F)nc3ccccc23)cc1 -0.5%
CCOC(=O)c1cc2c(=O)n3ccccc3nc2n(Cc2ccco2)c1=NC(=O)c1cccc(F)c1 3.86%
Cc1cc([N+](=O)[O-])ccc1NC(c1nnc(-c2ccccc2)o1)c1ccccc1F (centres undefined) -11.6%
CC(=O)N1CCc2cc(Br)cc(S(=O)(=O)CCC(=O)N3CCN(c4ccccc4)CC3)c21 -5.57%
Cc1nc2cc(C(=O)NC3CCCCCC3)ccc2n1-c1ccc(Br)cc1 2.55%
CC(C)c1ccc(NS(=O)(=O)c2ccc3[nH]cc(C(=O)NCC4CCCO4)c(=O)c3c2)cc1 (centres undefined) 1.73%
Cc1cc(-c2ccc(C)c(S(=O)(=O)NCCc3ccc(S(N)(=O)=O)cc3)c2)on1 5.55%
CCOc1ccc2nc(N3CCCC(C(=O)Nc4ccc(OC)c(Cl)c4)C3)sc2c1 (centres undefined) -15.7%
CN(C)S(=O)(=O)c1ccc2c(c1)N(CC(=O)Nc1ccc(F)cc1)C(=O)CS2 -14.4%
